Earlier results in patent publication US6037348A (priority 1997, dated 2000).

Experiments:
influenza A virus [1] = conditions: plaque reduction assay; cited from earlier work
influenza A virus [2] = conditions: cited from earlier work
[3] = human volunteers infected with wild-type influenza virus

For NC12CC3CC(CC(C3)C1)C2 [Amantadine, amantadine, reference compound], the “in vitro inhibition of influenza A virus” value (influenza A virus [1]) is given as “potent in vitro inhibitor”, the “duration of fever and other systemic complaints” value (influenza A virus [2]; administered within forty-eight hours of onset of clinical symptoms) is given as “effective in reducing the duration of fever” and the “decrease of virus titer in nasal washes” value (influenza A virus [2]; [3]) is given as “one hundred-fold decrease”. For the same molecule, the fever score (influenza A virus [2]; [3]) was “dramatic decrease in fever score”.
